In all, about 360,000 compounds went through this assay and about 6,000 (1.7%) were called active. The shares of active, inactive and inconclusive entries below differ from those in the screen. Calls come from the whole dose curve; as a rule, active = well fitted cell-killing curve with a large enough effect; inconclusive = small, poorly fitted or top-dose-only effect, or effect the other way; inactive = flat fitted curve, though single readings scatter. No potency is given beside an inconclusive call; the fits are too rough.
Test: qHTS for induction of synthetic lethality in tumor cells producing 2HG: qHTS for the HT-1080-NT fibrosarcoma cell line;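 note: NT is the 2HG producing partner of a matched IDH1 knockdown line; nearly all actives have a fitted effect of over 55% in size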;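 for activity, negative = less viability: 0% = DMSO-treated cells and -100% = media-only wells without cells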
Conditions: HT-1080-NT fibrosarcoma viability, CellTiter-Glo ATP luminescence, 48 h; activity, negative = less viability: at 46.1 µM (top of the series) unless noted
Procedure, shortened: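 Compounds were tested in concentration-response format on HT-1080-NT cells for 48 hours at 37 degrees C. Cell viability came from CellTiter-Glo luminescence; curves were classified by r2, response magnitude and activity.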
Potency is the fitted concentration of half-maximal effect; tags give direction and shape of the fitted curve.

Compound	Potency	activity, negative = less viability
CNc1nc(NCc2ccc(N(C)C)cc2)c2sccc2n1	inconclusive [cytotoxic, partial curve]	
CCc1nc2ccc(C(=O)NCCOc3ccc(OC)cc3)cn2c1N(CC)CCN(C)C	inactive	
Oc1ccc(C[C@@H]2CNCCN2CCc2cc(C(F)(F)F)cc(C(F)(F)F)c2)cc1	inconclusive [cytotoxic, single point]	
CC1CCN(C(=O)c2ccc(NC(=O)c3cccs3)cc2)CC1	inconclusive [rising, partial curve]	
Cc1c(C(=O)NCc2ccc(Cl)c(Cl)c2)sc(=O)n1Cc1cccc(F)c1	inconclusive [cytotoxic, single point]	
CC(=O)c1cccc(NC(=O)c2cc(-c3cccs3)on2)c1	inconclusive [rising, single point]	
O=C(c1ccc(CSc2ccc(Cl)cc2)o1)N1CCOCC1	inactive	
O=C(CN(Cc1ccc(Cl)c(Cl)c1)S(=O)(=O)c1ccccc1)N/N=C\c1ccc2c(c1)OCO2	inconclusive [cytotoxic, single point]	
CCCN1CCN(CCCNC(=O)c2cc3c(s2)-c2ccccc2OC3)CC1	active: 23.1 µM	
COc1ccc2nc(NC(=O)CN(C)S(=O)(=O)c3cccs3)sc2c1	inactive	
Cc1ccc(-n2nnnc2CCl)cc1	inconclusive [cytotoxic, single point]	
Cc1ccc(-c2nn(-c3ccccc3)cc2C(=O)N2CCN(c3ccccn3)CC2)cc1	inconclusive [cytotoxic, single point]	
CC(C1CC1)N(Cc1ccccc1)C(=S)Nc1ccccc1 (centres undefined)	inactive	
Cc1cc(NC(=O)c2c(F)cccc2F)n(-c2nc3ccccc3[nH]2)n1	inconclusive [cytotoxic, single point]	
CN(C)CCCN(C(=O)CCc1ccccc1)c1nc2ccc(Br)cc2s1	active: 18.4 µM	
O=C(c1cccc(Cl)c1)N1CCC(=O)N(C(COCc2cccc(Cl)c2)Cc2ccccc2)CC1 (centres undefined)	inconclusive [cytotoxic, single point]	
O=C1NC(=S)S/C1=C\c1ccc(SCc2ccccc2)o1	inactive	
CCCCCc1cc(O)c2c(C)cc(=O)oc2c1	inactive	
CCCC(C(=O)NC1CCCC1)N(Cc1ccccc1Cl)C(=O)c1snc(C(N)=O)c1N (centres undefined)	inconclusive [cytotoxic, partial curve, poor fit]	
Cn1cnnc1SCC(=O)Nc1sc2c(c1C(N)=O)CCC2	inconclusive [cytotoxic, full curve]	
C=CCOc1ccccc1CN1CCC(CO)(CCOc2ccccc2)CC1	inactive	
Cn1c(/C=C/c2ccccc2)nc2ccccc2c1=O	inconclusive [cytotoxic, single point]	

Compound	Potency	activity, negative = less viability
CC1CC(C)(C)CC2(C1)NC(=O)N(CC(=O)N1CCN(S(=O)(=O)c3ccc(F)c(F)c3F)CC1)C2=O (centres undefined)		inactive: -0.643% [at 9.24 µM]
O=C(NC(=S)Nc1ccc(NC(=O)c2ccco2)cc1)c1ccccc1		inconclusive: -32% [cytotoxic]
COc1ccc(S(=O)(=O)Nc2cc3c(cc2C(C)=O)OCO3)cc1	inconclusive [cytotoxic, partial curve]	
COc1ccccc1N1CCN(Cc2ccc(O)c3ncccc23)CC1	active: 0.141 µM	
O=C(NCCN1C(=O)S/C(=C\c2ccccc2F)C1=O)C1=COCCO1	inconclusive [cytotoxic, single point]	
CCN(CC)c1ccc(NC(=O)c2cccnc2)c(C)c1	inactive	
O=C(Cn1ncc(Cl)c(Cl)c1=O)Nc1ccc2c(c1)OCO2	inconclusive [cytotoxic, single point]	
Cc1nn(Cc2c(F)c(F)c(F)c(F)c2F)c(C)c1NC(=O)c1ccc(COc2ccc(Cl)cc2Cl)o1	inconclusive [cytotoxic, partial curve]	
CN(CC(=O)Nc1ccccc1C(F)(F)F)Cc1c(O)ccc2ccccc12	inconclusive [cytotoxic, partial curve]	
CCOC(=O)C1=CC[C@H]2c3c(c4ccc(OC)cc4n3C)C(=O)C1N2S(=O)(=O)c1ccc(C)cc1	active: 18.4 µM	
Cc1ccc2nc(N=C(N)N)nc(C)c2c1	inconclusive [cytotoxic, single point]	
O=C(/C=C/c1ccco1)NC(=S)Nc1cc(-c2nc3ccccc3s2)ccc1Cl	inconclusive [cytotoxic, single point]	
CCCC(=O)Nc1ccc(NC(=O)c2ccccn2)cn1	inactive	
COc1ccc(F)cc1-c1cc(NC=O)c2ncc(-c3cccc(C(=O)N(C)C)c3)n2c1	inconclusive [cytotoxic, single point]	
CCOC(=O)Cc1csc(NC(=O)c2sc3nc4c(C)cc(C)cc4cc3c2N)n1	inconclusive [cytotoxic, single point]	
CCOc1ccc(-c2cc(C(=O)N/N=C/c3ccc(O)cc3)c3ccccc3n2)cc1	inconclusive [cytotoxic, partial curve]	
COCCn1c(-c2ccco2)nc2nc3ccccc3nc21	inactive	
CCOc1cc(/C=C2\C(=O)ON=C2C)ccc1OCc1ccccc1	inconclusive [cytotoxic, single point]	
CC(=O)C[C@@H](O)CC(=O)[C@@H]1OC(=O)CCCCCCc2ccccc21	inconclusive [cytotoxic, single point]	
C/C(=N\Nc1nc2ccccc2[nH]1)c1ccc(N2CCOCC2)cc1	inconclusive [cytotoxic, partial curve]	
O=C1N/C(=C\c2ccccc2)C(O)=C1C=NCc1ccccc1	inconclusive [cytotoxic, single point]	
COc1ccc(NC(=O)COC(=O)c2ccc3c(c2)OCCO3)cc1OC	inconclusive [cytotoxic, single point]	

From PubChem BioAssay AID686970 (National Center for Advancing Translational Sciences (NCATS), 2013)
